Experimental data reported in PubChem BioAssay AID624202 (National Center for Advancing Translational Sciences (NCATS), 2012).
The campaign covered roughly 380,000 compounds. About 4,000 (1.1%) were called active. Inconclusive means that the source gave no clear call. Such entries were picked first, then a sample of the others. Calls come from the whole dose curve; as a rule, active = well fitted activation curve with a large enough effect; inconclusive = small, poorly fitted or top-dose-only effect; inactive = no such curve, though single readings can be large or run the other way. Potencies of inconclusive entries are doubtful fits and often do not repeat.
Potency is the fitted concentration of half-maximal effect; tags give direction and shape of the fitted curve.

Assay: qHTS Assay to Identify Small Molecule Activators of BRCA1 Expression; note: nearly all actives have a fitted effect of over 80% in size
Conditions: MCF7-BRCA1-FFLuc reporter, luminescence, 48 h; activation: at 46.1 µM (top of the series), scaled: vehicle 0%, 10 µM genistein 100% unless noted
In short: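 Luminescence from a BRCA1-driven firefly luciferase in MCF7 cells was the read-out, taken 15 min after substrate addition following 48 h compound exposure at 37 °C. Data were normalized to a 10 microM genistein control and DMSO vehicle.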
For `C[C@H](NS(=O)(=O)c1ccc(Cl)cc1)C(=O)OCC(=O)NC(=O)Nc1ccc2c(c1)OCCO2`, the Potency was inconclusive: 11.2 µM [activator, partial curve, poor fit]. In the case of `O=c1[nH]cnc2cc(-c3ccc(Br)cc3)sc12`, the Potency is reported as inconclusive: 14.1 µM [activator, partial curve, poor fit]. For `CCOC(=O)Nc1cc2c(c(N)n1)N=C(c1ccccc1)CN2`, the activation was inconclusive: -79.4% [activator]. For `O=C(/C=C/c1ccc([N+](=O)[O-])cc1)Nc1cccnc1`, the Potency was inconclusive: 31.6 µM [activator, single point]. For `O=C(/C=C/c1cccs1)NCc1ccccc1`, the Potency was active: 14.1 µM. With `C/C(=N\OCC(=O)N/N=C/c1ccccc1O)c1cccs1` the Potency was “inactive”. In the case of `Cc1ccc(C)c2nc3sc(C(=O)N4CCOCC4)c(N)c3cc12`, the Potency is reported as inconclusive: 14.1 µM [activator, partial curve, poor fit]. With `COc1ccc(C(=O)Nc2ccccc2C(=O)Nc2ccccn2)cc1` the Potency was inconclusive: 14.1 µM [activator, partial curve, poor fit]. In the case of `CC1Cc2ccccc2N1C(=O)COc1ccc2c(c1)OCO2` (stereo not drawn), the Potency is reported as active: 3.16 µM. For `CCOc1ccc(N(CC(=O)NCc2ccccc2)S(C)(=O)=O)cc1`, the Potency was “inactive”. In the case of `COc1ccc2cc(C(=O)N3CCC(Cc4ccccc4)CC3)[nH]c2c1`, the Potency is reported as inconclusive: 35.5 µM [activator, single point]. With `O=C1c2ccccc2C(=O)N1CCSc1ccccc1` the Potency was inconclusive: 2 µM [activator, full curve, poor fit]. In the case of `Nc1nnc(CC(=O)N/N=C/c2ccc(-c3cccc(C(=O)O)c3)o2)s1`, the Potency is reported as inconclusive: 22.4 µM [activator, single point]. In the case of `Cc1onc(-c2ccccc2)c1C(=O)Nc1ncc([N+](=O)[O-])s1`, the Potency is reported as “inactive”. In the case of `COc1ccccc1NC(=O)CN1CCCCCC1`, the Potency is reported as “inactive”. With `Cc1cc(NC(=S)NC(=O)c2ccccc2)ccc1-c1cc2ccccc2oc1=O` the Potency was “inactive”. For `S=c1nc(-c2ccc(Br)cc2)[nH]c2ccccc12`, the Potency was “inactive”. With `COc1ccc(Nc2n[nH]c(C)c2[N+](=O)[O-])cc1` the Potency was inconclusive: 11.2 µM [activator, partial curve, poor fit]. With `CC(=O)Oc1ccc(C(=O)Nc2nnc(C)s2)cc1` the Potency was inconclusive: 15.8 µM [activator, partial curve, poor fit]. For `C=CCn1cccc(C(=O)Nc2ccc(C)c(C)c2)c1=O`, the Potency was active: 3.16 µM. In the case of `N/C(=N\OC(=O)c1cccc2ccccc12)c1cccnc1`, the Potency is reported as inconclusive: 31.6 µM [activator, single point]. With `Cc1cc(C(=O)CSc2ncccn2)c(C)n1Cc1ccco1` the Potency was inconclusive: 3.16 µM [activator, full curve, poor fit]. For `O=C(/C=C/c1ccco1)Nc1ccc2nc3n(c(=O)c2c1)CCCC3`, the Potency was “inactive”. For `O=c1[nH]c(/C=C/c2ccccc2Cl)nc2ccccc12`, the Potency was inconclusive: 0.794 µM [activator, full curve, poor fit]. For `Cc1cccc(Nc2nc(-c3ccc(O)cc3O)cs2)n1`, the Potency was inconclusive: 3.16 µM [activator, partial curve, poor fit]. For `COc1ccc(Cc2nc3ccc(C(=O)NCc4cc(C)no4)cc3o2)cc1`, the Potency was inconclusive: 31.6 µM [activator, single point]. For `Cc1cc(CNC(=O)c2ccc3nc(Cc4ccccc4F)oc3c2)nn1C`, the Potency was active: 8.91 µM. For `Cc1cc2nc(/C(C#N)=C/c3ccncc3)[nH]c2cc1C`, the Potency was inconclusive: 7.94 µM [activator, partial curve, poor fit]. In the case of `COc1ccc(-c2cc(-c3ccccc3O)[nH]n2)cc1OC`, the Potency is reported as inconclusive: 3.16 µM [activator, partial curve, poor fit]. For `O=C(NCc1ccc(F)cc1)Nc1ccccc1`, the Potency was active: 10 µM. With `COc1ccc(-c2nc3ccc([N+](=O)[O-])cc3[nH]2)cc1` the Potency was inconclusive: 1 µM [activator, full curve, poor fit]. With `CS(=O)(=O)c1ccc(/C=C2\C=Cc3ccccc32)cc1` the Potency was inconclusive: 2.51 µM [activator, partial curve, poor fit]. For `COc1ccc(CCN2CC(C(=O)NCCc3ncccc3C)CCC2=O)cc1` (stereo not drawn), the Potency was “inactive”. For `COc1cccc(CNc2ccc(F)c([N+](=O)[O-])c2)c1O`, the Potency was “inactive”. In the case of `Cc1ccccc1C(=O)NNC(=O)c1ccoc1C`, the Potency is reported as “inactive”. For `Cc1cc(Cl)ccc1NC(=S)Nc1ccccn1`, the Potency was “inactive”. For `CCOC(=O)c1[nH]c2ccc(Cl)cc2c1NC(=O)/C=C/c1ccc2c(c1)OCO2`, the Potency was “inactive”. In the case of `Cc1occc1C(=O)N/N=C/c1ccc(-c2ccccc2)cc1`, the Potency is reported as inconclusive: 1.26 µM [activator, full curve, poor fit]. In the case of `CC(C)(C)c1ccc(C(=O)Nc2ccc(Oc3cccnc3)nc2)cc1`, the Potency is reported as “inactive”. With `N#Cc1ccccc1OCc1nnc(-c2ccccc2Br)o1` the Potency was inconclusive: 1.58 µM [activator, full curve, poor fit]. In the case of `CN(C)c1ccc(/C=N/NC(=O)c2ccco2)cc1`, the Potency is reported as inconclusive: 0.794 µM [activator, full curve, poor fit]. For `COc1cccc(OCc2ccc(Cl)cc2)c1C#N`, the Potency was inconclusive: 1.58 µM [activator, partial curve, poor fit]. In the case of `CC(=O)NC1Sc2ccccc2N=C1c1ccccc1` (stereo not drawn), the Potency is reported as active: 10 µM. In the case of `CN1CCN(C2=C(Cl)C(=O)N(CCc3ccccc3)C2=O)CC1`, the Potency is reported as inconclusive: 14.1 µM [activator, partial curve, poor fit]. With `O=C(N/C=C/c1ccccc1)Nc1ccc(Cl)cc1` the Potency was inconclusive: 1.78 µM [activator, full curve, poor fit]. With `Cc1cc(C(=O)COC(=O)c2ccc(O)cc2)c(C)n1CC1CCCO1` (stereo not drawn) the Potency was inconclusive: 2 µM [activator, partial curve, poor fit]. In the case of `N#Cc1cccc(NC(=O)Cn2c3[n+](c4ccc(C(F)(F)F)cc42)CCCCC3)c1`, the Potency is reported as “inactive”. In the case of `CCc1cc2c(=O)n(Cc3ccco3)c(SCC(=O)NCC3CCCO3)nc2s1` (stereo not drawn), the Potency is reported as “inactive”.
